In PubChem BioAssay AID1745847 (National Center for Advancing Translational Sciences (NCATS), 2022):
Out of some 2,100 compounds screened, about 670 (32%) were called active. Inconclusive means that the source gave no clear call. Such entries were picked first, then a sample of the others. Calls come from the whole dose curve; as a rule, active = well fitted inhibition curve with a large enough effect; inconclusive = small, poorly fitted or top-dose-only effect; inactive = no such curve, though single readings can be large or run the other way. Potencies of inconclusive entries are doubtful fits and often do not repeat.
% is set by controls: 0 for no effect and ±100 for the full control effect; potency is the fitted concentration of half-maximal effect; tags give direction and shape of the fitted curve.

Test: CMV-Luciferase Counterscreen for Inhibitors of ATXN expression; note: nearly all actives have a fitted effect of over 55% in size
Conditions: HEK-293 CMV-luciferase reporter, luminescence, 24 h; series mostly up to 57.5 µM
For `COc1ccccc1N(CC(=O)N/N=C/c1c(O)ccc2ccccc12)S(C)(=O)=O`, the Potency was inconclusive: 2.82 µM [inhibitor, full curve, poor fit]. For `CN1CCN(C(c2ccc(C(F)(F)F)cc2)c2ccc3cccnc3c2O)CC1` (stereo not given), the Potency was inconclusive: 10 µM [inhibitor, partial curve, poor fit]. With `C/C(=N\N=C(N)N)c1ccc(Cl)cc1Cl` the Potency was “inactive”. With `CCC(C)(C)c1ccc(OCCCC[n+]2ccccc2)c(C(C)(C)CC)c1` the Potency was inconclusive: 2.82 µM [inhibitor, partial curve, poor fit]. With `COc1ccc(C2CC(c3ccc(C(F)(F)F)cc3)=NN2c2ccc(S(N)(=O)=O)cc2)cc1` (stereo not given) the Potency was inconclusive: 39.8 µM [inhibitor, single point]. With `O=C(c1ccc2c(c1)OCO2)N(Cc1cccs1)C1(C(=O)NC2CCCCC2)CCCCC1` the Potency was active: 28.2 µM. In the case of `CCN(CC)CCNC(=O)c1ccc(NC(=O)c2ccccc2-c2ccc(C(F)(F)F)cc2)cc1`, the Potency is reported as “inactive”. In the case of `COc1ccc(/C=C2/CSC/C(=C/c3ccc(OC)c(OC)c3)C2=O)cc1OC`, the Potency is reported as inconclusive: 35.5 µM [inhibitor, single point]. In the case of `CC(C)[C@H](CO)Nc1nc(NCc2ccc(S(N)(=O)=O)cc2)c2ncn(C(C)C)c2n1`, the activity change, negative = inhibition is reported as inactive: 41.8% [at 11.4 µM]. In the case of `O=C(CCc1ccccc1)NC(c1cccs1)c1cc(Cl)c2cccnc2c1O` (stereo not given), the Potency is reported as inconclusive: 1.26 µM [inhibitor, full curve, poor fit]. With `Cc1ccc2nc(-c3ccccn3)c(NC3CCCC3)n2c1` the Potency was inconclusive: 8.91 µM [inhibitor, single point]. In the case of `Cn1c(/C=C/c2cccc([N+](=O)[O-])c2)c([N+](=O)[O-])c(=O)n(C)c1=O`, the Potency is reported as inconclusive: 25.1 µM [inhibitor, partial curve, poor fit]. For `CCCCNCCCOc1cccc(Cl)c1Cl`, the Potency was “inactive”. For `COc1cccc(CC(=O)Nc2nc(-c3ccc(OC)c(OC)c3)cs2)c1`, the Potency was inconclusive: 11.2 µM [inhibitor, partial curve]. In the case of `Cc1cc(C(=O)N/N=C/c2cc(Br)ccc2OC(=O)c2ccccc2Cl)n[nH]1`, the Potency is reported as inconclusive: 4.47 µM [inhibitor, full curve]. For `CCN(C(=O)c1cc2c(C)nc3ccccc3c2o1)c1cc(Cl)ccc1OC`, the Potency was inconclusive: 14.1 µM [inhibitor, partial curve, poor fit]. For `COc1ccc(NC(=O)c2cc(-c3cc(Cl)ccc3OC)n[nH]2)cc1OC`, the Potency was inconclusive: 28.2 µM [inhibitor, partial curve, poor fit]. With `COc1cccc(/C=N/n2c(N)c(S(=O)(=O)c3cccs3)c3nc4ccccc4nc32)c1OC` the Potency was inconclusive: 25.1 µM [inhibitor, single point]. For `O=S(=O)(c1cccs1)N1CCN(c2ccnc3cc(Cl)ccc23)CC1`, the Potency was inconclusive: 17.8 µM [inhibitor, partial curve, poor fit]. With `CCN1C(=O)/C(=C/c2nc3ccccc3c(=O)n2-c2ccccc2)c2ccccc21` the Potency was inconclusive: 8.91 µM [inhibitor, partial curve]. With `COc1ccc(C(=O)Cn2c(C(=O)/C=C/c3ccccc3)nc3ccccc32)cc1` the activity change, negative = inhibition was inactive: 92.9% [at 11.4 µM]. In the case of `c1ccc2c(c1)C(=NC1CCCCC1)NC2=NC1CCCCC1`, the Potency is reported as “inactive”. With `O=C(/C=C/c1cccs1)c1cc(Br)ccc1OC(=O)N1CCOCC1` the Potency was inconclusive: 3.98 µM [inhibitor, full curve]. In the case of `CC[C@@H]1C(c2cccc(Cl)c2)=NN(c2ccc(Br)cc2)[C@H]1C(=O)N1CCOC1=O`, the Potency is reported as “inactive”. For `CC(C)c1ccc(S(=O)(=O)c2cc3cc(Br)ccc3oc2=O)cc1`, the Potency was inconclusive: 25.1 µM [inhibitor, single point]. With `NC(=O)c1cccc(-c2ccnc3c2CC(C(=O)Nc2cccc(Oc4ccccc4)c2)O3)c1` (stereo not given) the Potency was inconclusive: 14.1 µM [inhibitor, partial curve, poor fit]. In the case of `CN(C)CCNc1ccc2ncn3c4ccc(O)cc4c(=O)c1c23`, the Potency is reported as inconclusive: 0.282 µM [inhibitor, full curve]. With `CCCC(=O)NC(c1ccc(Cl)cc1)c1ccc2cccnc2c1O` (stereo not given) the Potency was inconclusive: 2 µM [inhibitor, full curve, poor fit]. With `Cc1nnc(SCC(N)=O)n1CC1CCCO1` (stereo not given) the Potency was “inactive”. With `CCC(=O)NC(=S)NNC(=O)c1ccc(OC)cc1` the Potency was inconclusive: 10 µM [inhibitor, partial curve]. With `COc1ccc(C)cc1NC(=O)CSc1ccc(-c2ccccn2)nn1` the Potency was inconclusive: 17.8 µM [inhibitor, partial curve, poor fit]. For `COc1ccc(C)cc1Nc1nc(C)nc2sc(C)cc12`, the Potency was inconclusive: 3.55 µM [inhibitor, single point]. For `Clc1ccccc1C(c1ccccc1)(c1ccccc1)n1ccnc1`, the Potency was active: 3.16 µM. In the case of `Cc1cc(OCC(=O)Nc2ccc(Br)cc2)cc2c1C(=O)CC(C)(C)O2`, the Potency is reported as inconclusive: 3.55 µM [inhibitor, partial curve, poor fit]. With `CN(C)CCNc1ncnc2c1sc1nc(N3CCOCC3)c3c(c12)CC(C)(C)SC3` the Potency was “inactive”. For `COc1cc(C(=O)O/N=C(\N)Cc2ccc([N+](=O)[O-])cc2)cc(OC)c1OC`, the activity change, negative = inhibition was inactive: -6.35% [at 11.4 µM]. In the case of `Cc1cc(N2CCN(S(=O)(=O)c3ccc(Cl)cc3)CC2)c2ccccc2n1`, the Potency is reported as inconclusive: 2.51 µM [inhibitor, partial curve, poor fit]. For `Cc1cc(C)nc(/N=C(\N)Nc2ccc(C(C)C)cc2)n1`, the Potency was inconclusive: 2.24 µM [inhibitor, partial curve, poor fit]. In the case of `O=C(CSc1nnc(-c2ccccc2)o1)Nc1ccccc1F`, the Potency is reported as inconclusive: 1.58 µM [inhibitor, partial curve, poor fit]. In the case of `Cc1ccc(C(NC(=O)C(C)C)c2cc([N+](=O)[O-])c3cccnc3c2O)cc1` (stereo not given), the Potency is reported as inconclusive: 2.24 µM [inhibitor, partial curve, poor fit].
